In PubChem BioAssay AID504466 (National Center for Advancing Translational Sciences (NCATS), 2011):
Among all 330,000 compounds or so, about 4,200 (1.3%) were called active. This list was built around the results that the source calls inconclusive (neither active nor inactive); the mix of calls is not that of the screen. Calls follow the shape of the dose curve; as a rule, active = well fitted activation curve with a large enough effect; inconclusive = small, poorly fitted or top-dose-only effect; inactive = no such curve, though single readings can be large or run the other way. Potencies beside an inconclusive call are fits to weak or partial responses and may not hold up.

Assay: qHTS screen for small molecules that induce genotoxicity in human embryonic kidney (HEK293T) cells expressing luciferase-tagged ELG1; also: nearly all actives have a fitted effect of over 60% in size
Conditions: HEK293T ELG1-luciferase reporter, luminescence, 16 h; series mostly up to 46 µM
Summary of the method: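 Reporter readout depends on ELG1 protein level, which increases with genetic stress. After 16 hr compound exposure at 37 °C, luciferase activity was quantified using ONE-Glo.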
Potency is read from the fitted curve at half-maximal effect; tags tell the direction and shape of the fitted curve.

For `O=C(CC1CCCCC1)NCc1ccccc1`, which Potency is on record?
The Potency was inconclusive: 18.3 µM [activator, partial curve, poor fit].

With `CC1CCCC(NC(=O)C2CCCN2S(=O)(=O)c2cccc3nsnc23)C1C` (stereo not drawn) as the compound, how does the Potency read?
Its Potency is “inactive”.

Which Potency does the source give for `O=C(CSc1nc2ccccc2c(=O)n1-c1ccccc1)N/N=C/C=C/c1ccccc1[N+](=O)[O-]` here?
The Potency was “inactive”.

Which Potency does the source give for `CC(C)C(=O)Nc1ccc(NC(=O)c2ccc3c(c2)OCO3)cc1` here?
Its Potency is inconclusive: 17.8 µM [activator, partial curve, poor fit].

For `Nc1ccccc1C(=O)/C=C/c1ccc2c(c1)OCO2`, which Potency is on record?
Its Potency is inconclusive: 3.26 µM [activator, full curve].

Which Potency does the source give for `O=C(Nc1ccc(F)c(F)c1)c1ccc2c(c1)OCO2` here?
Its Potency is active: 3.66 µM.

With `N#C/C(=C\c1cn(-c2ccccc2)nc1-c1cc2ccccc2o1)c1nc2ccccc2[nH]1` as the compound, how does the Potency read?
Its Potency is inconclusive: 29.1 µM [activator, single point].

With `O=C(Nc1ccc(NC(=O)c2ccco2)nc1)c1cccc(F)c1` as the compound, how does the Potency read?
Its Potency is inconclusive: 2.06 µM [activator, full curve].

Which Potency does the source give for `Cn1c(C(=O)O)c(CC(=O)Nc2ccc3c(c2)OCCO3)c2ccccc21` here?
Its Potency is inconclusive: 20.6 µM [activator, partial curve, poor fit].

With `COc1ccc(C(=O)C(OC(=O)c2ccccc2)c2ccccc2)cc1` (stereo not drawn) as the compound, how does the Potency read?
Its Potency is inconclusive: 20.6 µM [activator, single point].

With `COc1ccc(/C=C/C(=O)c2ccc(NC(=O)c3cccs3)cc2)cc1OC` as the compound, how does the Potency read?
Its Potency is inconclusive: 23.1 µM [activator, partial curve].

For `Cc1cccn2c(=O)c3cc(C(=O)NCC4CCCO4)c(=N)n(CCc4ccccc4)c3nc12` (stereo not drawn), which Potency is on record?
Its Potency is “inactive”.

For `CCOC(=O)c1c(C)[nH]c(C(=O)OCCOc2ccccc2C)c1C`, which Potency is on record?
Its Potency is inconclusive: 7.31 µM [activator, partial curve].

With `O=C(Nc1ccc2ccccc2c1)c1ccccc1F` as the compound, how does the Potency read?
The Potency was active: 2.59 µM.

With `N#Cc1ccccc1NC(=O)c1ccc2c(c1)OCCO2` as the compound, how does the Potency read?
The Potency was inconclusive: 4.47 µM [activator, full curve].

With `O=C(NC1CCCCCC1)c1ccc(N2CCCC2=O)cc1` as the compound, how does the Potency read?
The Potency was active: 9.2 µM.

With `Cc1cccc(/C=N/Nc2ccc3ccccc3n2)c1` as the compound, how does the Potency read?
The Potency was active: 0.231 µM.

Which Potency does the source give for `C1=C(c2cc3ccccc3cn2)CCCC1` here?
Its Potency is inconclusive: 10.3 µM [activator, partial curve].

Which Potency does the source give for `O=C(O)c1cccc(NC(=O)c2ccc(Cl)c(S(=O)(=O)N3CCCCCC3)c2)c1` here?
The Potency was active: 2.31 µM.

With `Cc1cccc(-n2c(C)cc(C=C3C(=O)c4ccccc4C3=O)c2C)c1` as the compound, how does the Potency read?
The Potency was inconclusive: 4.61 µM [activator, single point].

For `COC(=O)c1sc(N)c(C(=O)OC)c1COC(=O)CCNS(=O)(=O)c1ccc(C)cc1`, which Potency is on record?
The Potency was “inactive”.

With `COc1c(Cl)cccc1-c1cn2ccccc2n1` as the compound, how does the Potency read?
Its Potency is active: 4.11 µM.

Which Potency does the source give for `COc1ccc(-c2cc3c(=O)n(CC(=O)NCCCN4CCC(Cc5ccccc5)CC4)ncn3n2)cc1` here?
Its Potency is inconclusive: 23.1 µM [activator, single point].

With `COc1cc(C=O)ccc1OCCSc1ccc(C)cc1` as the compound, how does the Potency read?
The Potency was active: 16.4 µM.

For `Cc1ccc(/C=C(\C#N)C(=O)Nc2ccccn2)o1`, which Potency is on record?
Its Potency is active: 5.17 µM.

With `Cc1cc(C(=O)CSc2nnc(-c3ccc4c(c3)OCO4)o2)c(C)n1-c1ccc(F)cc1` as the compound, how does the Potency read?
The Potency was “inactive”.

With `COc1nccnc1NS(=O)(=O)c1ccc(NCc2cc(Br)ccc2O)cc1` as the compound, how does the Potency read?
Its Potency is inconclusive: 9.2 µM [activator, partial curve, poor fit].

Which Potency does the source give for `CCN(CC)C(=O)CSc1ncnc2c1cnn2-c1ccccc1` here?
The Potency was inconclusive: 20.6 µM [activator, partial curve, poor fit].

For `CC1(C)Cc2c(cnn2-c2ccc(F)cc2)C(NC(=O)c2ccc(=O)oc2)C1` (stereo not drawn), which Potency is on record?
Its Potency is inconclusive: 20.6 µM [activator, single point].

For `COc1ccc(C(=O)COC(=O)c2cccnc2Cl)c(OC)c1`, which Potency is on record?
Its Potency is active: 20.6 µM.

Which Potency does the source give for `Cc1ccc2nc(NC(=O)c3ccc(-c4nc5ccccc5s4)s3)sc2c1` here?
Its Potency is active: 16.4 µM.

With `CC1(C)CC(=O)/C(=C\c2cccc([N+](=O)[O-])c2)C(C)(C)N1` as the compound, how does the Potency read?
Its Potency is inconclusive: 29.1 µM [activator, single point].

Which Potency does the source give for `O=C(NC1CC1)C1CCN(c2nc3ccccc3s2)CC1` here?
Its Potency is inconclusive: 10.3 µM [activator, partial curve, poor fit].

For `CCN(CC)C(=O)c1sc(NC(=O)c2ccc(Br)o2)c(C(=O)OC)c1C`, which Potency is on record?
Its Potency is “inactive”.

For `CC(=O)Nc1ccc(C(=O)N/N=C/c2ccccc2OC(=O)c2ccc(Cl)cc2)cc1`, which Potency is on record?
The Potency was “inactive”.

For `Cc1cc2cc(C)c(NCCNC(=O)c3cccs3)nc2cc1C`, which Potency is on record?
Its Potency is “inactive”.

Which Potency does the source give for `O=C(NCc1ccccn1)Nc1ccc(Cl)cc1Cl` here?
Its Potency is inconclusive: 18.3 µM [activator, single point].

With `Cc1ccc(S(=O)(=O)N(CC(=O)c2ccccc2)C(=O)N2CCN(C)CC2)cc1` as the compound, how does the Potency read?
The Potency was inconclusive: 4.61 µM [activator, partial curve, poor fit].

Which Potency does the source give for `Cc1cccc(/C=N/Nc2nncc3ccccc23)c1` here?
The Potency was active: 0.461 µM.

With `Cn1ccnc1SCC(=O)c1cccc(Br)c1` as the compound, how does the Potency read?
The Potency was inconclusive: 20.6 µM [activator, partial curve].

With `COc1ccccc1NC(=O)Nc1ccc(CC#N)cc1` as the compound, how does the Potency read?
Its Potency is inconclusive: 20.6 µM [activator, partial curve, poor fit].

With `O=C(N/N=C/C(Br)=C/c1ccccc1)c1cccnc1` as the compound, how does the Potency read?
The Potency was inconclusive: 20.6 µM [activator, partial curve, poor fit].

With `CCOc1ccc(-c2csc(NC(=O)c3ccco3)n2)cc1` as the compound, how does the Potency read?
Its Potency is inconclusive: 13 µM [activator, partial curve, poor fit].

Which Potency does the source give for `Nc1ccc(-c2nc3ccccc3s2)cn1` here?
The Potency was active: 9.2 µM.

Which Potency does the source give for `N#Cc1ccsc1NC(=O)COC(=O)c1cc2ccccc2cc1O` here?
Its Potency is inconclusive: 23.1 µM [activator, partial curve, poor fit].

Which Potency does the source give for `CCOC(=O)c1ccc(N2Cc3ccccc3C2)cc1O` here?
Its Potency is inconclusive: 16.4 µM [activator, partial curve].

Which Potency does the source give for `COc1ccc(/C=N/NC(=O)c2ccoc2C)cc1CN1CCN(c2ccc(F)cc2)CC1` here?
Its Potency is “inactive”.

For `CCOC(=O)C(C)n1cnc2c(nnn2-c2ccc(C)cc2)c1=O` (stereo not drawn), which Potency is on record?
The Potency was inconclusive: 23.1 µM [activator, partial curve, poor fit].

For `O=[N+]([O-])c1cccc(S(=O)(=O)Nc2cccc(-c3ccc(N4CCOCC4)nn3)c2)c1`, which Potency is on record?
Its Potency is inconclusive: 9.2 µM [activator, partial curve].

With `CCCCCC(=O)Nc1ccc(-c2cn3cccnc3n2)cc1` as the compound, how does the Potency read?
The Potency was inconclusive: 18.3 µM [activator, partial curve, poor fit].

For `NC(=O)c1ccsc1NC(=O)c1ccc(N2CCCC2=O)cc1`, which Potency is on record?
Its Potency is active: 1.64 µM.

For `O=C(Nc1ccc(OC(F)(F)F)cc1)c1cnccn1`, which Potency is on record?
The Potency was inconclusive: 13 µM [activator, partial curve].

Which Potency does the source give for `O=C(CCS(=O)(=O)c1cccc2nonc12)Nc1cccc2c1CCCC2` here?
Its Potency is inconclusive: 29.1 µM [activator, single point].

With `COc1ccc(OC(=O)c2cccnc2)cc1` as the compound, how does the Potency read?
Its Potency is “inactive”.

For `CCOc1ccc(NC(=O)CN2C(=O)S/C(=C/c3cccn3C)C2=O)cc1`, which Potency is on record?
Its Potency is inconclusive: 25.9 µM [activator, single point].

With `CC(C)CCNC(=O)NC(=O)COC(=O)/C=C/c1cc(Br)ccc1F` as the compound, how does the Potency read?
Its Potency is “inactive”.

Which Potency does the source give for `CC(=O)c1c(O)cc(C)n(Nc2nc(C)cc(C)n2)c1=O` here?
Its Potency is inconclusive: 29.1 µM [activator, single point].

With `CCC(=O)c1ccc(OCCSc2ncccn2)cc1` as the compound, how does the Potency read?
Its Potency is active: 3.66 µM.

With `O=C(Nc1ccc(NC(=O)c2ccc3c(c2)OCCO3)cc1)c1ccccc1` as the compound, how does the Potency read?
The Potency was inconclusive: 18.3 µM [activator, partial curve].

With `CCCC(=O)N1CCN(c2nc3ccccc3s2)CC1` as the compound, how does the Potency read?
Its Potency is inconclusive: 2.91 µM [activator, partial curve].

For `Cc1ccc(C(=O)Nc2nc(-c3ccccn3)cs2)s1`, which Potency is on record?
The Potency was active: 14.6 µM.

With `CCc1ccc(-c2nc(CSCC(=O)N3CCN(c4ccccn4)CC3)c(C)o2)cc1` as the compound, how does the Potency read?
Its Potency is “inactive”.

Which Potency does the source give for `O=Cc1cc2cc3c(cc2nc1Cl)OCCO3` here?
The Potency was inconclusive: 18.3 µM [activator, partial curve, poor fit].

With `Oc1ccc2ccccc2c1N=Nc1nccs1` as the compound, how does the Potency read?
Its Potency is inconclusive: 9.2 µM [activator, partial curve, poor fit].

With `Cc1cc(C)cc(NC(=O)Nc2cccc(S(N)(=O)=O)c2)c1` as the compound, how does the Potency read?
The Potency was “inactive”.

For `Cc1cccc(-c2cnn(-c3ccccc3)c2N)c1`, which Potency is on record?
Its Potency is inconclusive: 13 µM [activator, partial curve, poor fit].

Which Potency does the source give for `CCC(C)(C)C1CCC2(CC1)NC(=S)N(c1ccccc1)N2` (stereo not drawn) here?
Its Potency is inconclusive: 11.6 µM [activator, partial curve, poor fit].

Which Potency does the source give for `N/C(=N\OC(=O)c1cccc(Br)c1)c1ccccc1` here?
Its Potency is inconclusive: 20.6 µM [activator, partial curve, poor fit].

With `COc1cc2oc(=O)cc(-c3ccc(-c4ccc(CO)cc4)cc3)c2c(OC)c1OC` as the compound, how does the Potency read?
The Potency was “inactive”.

Which Potency does the source give for `Cc1ccn2cc(-c3cccc(NC(=O)C(C)C)c3)nc2c1` here?
The Potency was inconclusive: 5.17 µM [activator, partial curve, poor fit].

For `Cc1ccc([N+](=O)[O-])cc1S(=O)(=O)Nc1cccc(S(=O)(=O)NC2=NCCC2)c1`, which Potency is on record?
The Potency was “inactive”.

Which Potency does the source give for `O=C(NC1CCCCCCC1)C1CCN(c2nc3ccccc3o2)CC1` here?
The Potency was inconclusive: 23.1 µM [activator, partial curve, poor fit].

With `Cc1ccsc1/C=N/Nc1ccc(F)cc1F` as the compound, how does the Potency read?
The Potency was inconclusive: 16.4 µM [activator, single point].
